# Assay results: PubChem BioAssay AID1345082 (National Center for Advancing Translational Sciences (NCATS), 2018)
# Hit rate of the full screen: of about 94,000 compounds, about 4,000 (4.3%) were called active. Inconclusive means that the source gave no clear call. Such entries were picked first, then a sample of the others. Calls follow the shape of the dose curve; as a rule, active = well fitted inhibition curve with a large enough effect; inconclusive = small, poorly fitted or top-dose-only effect; inactive = no such curve, though single readings can be large or run the other way. Potencies beside an inconclusive call are fits to weak or partial responses and may not hold up.
# Assay: Cytotoxic Profiling in NIH 3T3 Cell Line of Diverse Libraries Using Quantitative High-Throughput Screening; also: nearly all actives have a fitted effect of over 55% in size
# Conditions: NIH 3T3 viability, CellTiter-Glo ATP luminescence, 48-72 h; series mostly up to 96.7 µM
# In short: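 First NIH 3T3 cells are plated at 400 cells/well; next compound is pinned in; then plates incubate 48 or 72 hr at 37 °C; finally CellTiter-Glo is added and luminescence read after 10 min.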
# Potency is read from the fitted curve at half-maximal effect; tags tell the direction and shape of the fitted curve.
row,Compound,Potency
1,CC(C)(C)c1ccc(C(=O)N2CCC(c3n[nH]c(=O)n3-c3ccccc3)CC2)cc1,inactive
2,CC(C)=CCN1CCNC(=O)C1CC(=O)NC(C)(C)c1cccc2ccccc12 (stereo unspecified),"inconclusive: 50.1 µM [inhibitor, partial curve, poor fit]"
3,O=C(C1CCCN1C(=O)Nc1ccc(Cl)cc1)N1CCC(c2nc3ccncc3[nH]2)C1 (stereo unspecified),"inconclusive: 50.1 µM [inhibitor, partial curve, poor fit]"
4,Fc1ccc(-c2ccc3ncc(Nc4ccnc(N5CCOCC5)c4)n3n2)cc1,active: 8.91 µM
5,COc1ccc(C(=O)NC2CCN(c3nccc(Nc4ccccc4OC)n3)CC2)cc1,inactive
6,CCn1cc(C(=O)N2C[C@@H](COC)[C@H](c3ccccn3)C2)cn1,inactive
7,Cc1cc(OCC(=O)c2ccc3c(c2)N(CC(=O)NCC2CC2)C(=O)CO3)ccc1Cl,"inconclusive: 28.2 µM [inhibitor, full curve, poor fit]"
8,Cc1cn2nnc(C(=O)NC3CCCCCCC3)c2c(=O)[nH]1,inactive
9,CCCN(C)C(=O)c1ccc(-c2nnc3ccc(NC(=O)C4CCC4)cn23)cc1,inactive
10,COCCCn1c(=O)c(C(=O)N2CCC(Cc3ccccc3)CC2)nc2cccnc21,inactive
11,Cc1cccc(C(=O)N2C[C@@H](COc3ccccc3)[C@H](C(N)=O)C2)c1,inactive
12,COc1ncccc1-c1csc(CN2CCCC(C)(NC(C)=O)C2)c1 (stereo unspecified),"inconclusive: 56.2 µM [inhibitor, partial curve, poor fit]"
13,O=C(CN1C(=O)C(c2ccccc2)=NC12CCCCC2)NC1CCCC1,"inconclusive: 44.7 µM [inhibitor, partial curve, poor fit]"
14,CCc1cnc(C)nc1N1CCCn2nc(CCC(=O)NC3CC3)cc2C1,inactive
15,Cc1cc(NC(=O)C2CCN(C(=O)c3ncn4c3COC(c3ccc(F)cc3)C4)CC2)ccc1Cl (stereo unspecified),"inconclusive: 31.6 µM [inhibitor, partial curve]"
16,O=C(COc1ccc(Cl)cc1)N1CCc2nn(CC3CC3)c(=O)n2CC1,"inconclusive: 70.8 µM [inhibitor, single point]"
17,COc1ccc(-c2ccnc(N[C@H]3CO[C@H]4[C@@H]3OC[C@H]4OC(=O)Nc3cccc(C(C)=O)c3)n2)cc1,"inconclusive: 50.1 µM [inhibitor, partial curve, poor fit]"
18,O=C(Cn1nc2c(cc1=O)CCCCC2)NC1CCN(Cc2ccc(F)cc2)CC1,inactive
19,O=C(NCc1cccc(Cl)c1)c1ccc2oc(-c3ccnc(Cl)c3)nc2c1,"inconclusive: 44.7 µM [inhibitor, partial curve, poor fit]"
20,COc1ccc(-c2ccc(C(=O)NCCc3ccc(F)cc3)c(Cl)c2)nn1,"inconclusive: 44.7 µM [inhibitor, partial curve, poor fit]"
21,Cc1ccc(S(=O)(=O)NC[C@H]2O[C@H](Cc3cc(-c4cccc(O)c4)on3)CC[C@@H]2O)cc1,"inconclusive: 89.1 µM [inhibitor, single point]"
22,CC(C)c1ccc(CN2CCc3ncc(C(=O)NCc4ccccc4)n3CC2)cc1,"inconclusive: 56.2 µM [inhibitor, partial curve, poor fit]"

row,Compound,Potency
1,Cc1ccc(OCc2nc(C3CCCCN3C(=O)CCCc3nc(-c4ccc(C)cc4)no3)no2)cc1 (stereo unspecified),"inconclusive: 10 µM [inhibitor, full curve, poor fit]"
2,Cc1noc(-c2cccc(OC3CN(C(=O)NC4CCCC4)C3)c2)n1,"inconclusive: 63.1 µM [inhibitor, partial curve, poor fit]"
3,CCCC(=O)N1CCC2(CC1)SCC(=O)N2c1ccc(Cl)cc1,"inconclusive: 50.1 µM [inhibitor, single point]"
4,COCCCNC(=O)C1CCN(C(=O)c2ncn3c2COC(c2ccc(OC)cc2)C3)CC1 (stereo unspecified),inactive
5,CC(C)N1CCC(OCCCNC(=O)C2CCN(c3cnn(C)c(=O)c3)C2)CC1 (stereo unspecified),inactive
6,CN1Cc2cccn2CC1CNC(=O)c1nn(C)c2ccccc12 (stereo unspecified),"inconclusive: 70.8 µM [inhibitor, single point]"
7,COc1ccc(C2Cn3nnc(-c4noc(COc5ccccc5)n4)c3CO2)cc1 (stereo unspecified),inactive
8,CS(=O)(=O)c1ccc(-c2cnc([C@@H]3COCCN3Cc3ccccc3O)[nH]2)cc1,"inconclusive: 126 µM [inhibitor, single point]"
9,COc1ccc(O)c(CN2CCC(CO)(Cc3ccccc3Cl)CC2)c1,"inconclusive: 44.7 µM [inhibitor, partial curve, poor fit]"
10,CC(C)CCN1CCCCC12Cc1ccccc1CNC2=O (stereo unspecified),inactive
11,COc1ccc(N2CC3(C2)CN(c2ccccc2)C(=O)O3)cc1OC,inactive
12,COc1cccc(-c2ccc(CN3CCCC(N[S+](=O)([O-])c4ccccc4)C3)cc2)c1 (stereo unspecified),active: 39.8 µM
13,COc1ccc(-c2ccc3c(n2)CN(CCOc2ccccc2)C(=O)CO3)cc1,"inconclusive: 112 µM [inhibitor, single point]"
14,COCCN1Cc2ccc(NCC(C)C)nc2C(C)(C(=O)Nc2ccncc2)C1 (stereo unspecified),"inconclusive: 89.1 µM [inhibitor, partial curve]"
15,CC(c1ccccc1)N1Cc2cc(NC(=O)c3ccccc3)ccc2OCC1=O (stereo unspecified),"inconclusive: 50.1 µM [inhibitor, partial curve, poor fit]"
16,CC(C)NC(=O)C1=NOC2CN(C(=O)C3CC3)CC12 (stereo unspecified),inactive
17,CCN1C[C@H]2COc3ccc(C)cc3[C@H]2N(C(=O)CC2CCCC2)CCC1=O,"inconclusive: 70.8 µM [inhibitor, single point]"
18,CN(Cc1ccccc1)Cc1cn([C@H]2CO[C@H]3[C@@H]2OC[C@@H]3NC(=O)COc2ccccc2)nn1,inactive
19,O=C(C1CN(c2ccc(Cl)cc2)C(=O)N1)N1CCN(Cc2ccccc2)CC1 (stereo unspecified),"inconclusive: 20 µM [inhibitor, full curve, poor fit]"
20,CCOc1ccc(C(=O)N2CCC(Cc3nc(-c4cccc(OC)c4)no3)CC2)cc1,"inconclusive: 44.7 µM [inhibitor, partial curve, poor fit]"
21,CNC(=O)c1cc(C2CC2)nc2c1c(C1CCCN(C(=O)C3CCCCC3)C1)nn2C (stereo unspecified),"inconclusive: 25.1 µM [inhibitor, partial curve, poor fit]"
22,Cn1cnc(S(=O)(=O)N2CCCOCCNC(=O)[C@@H]3CCC[C@@H]32)c1,inactive

row,Compound,Potency
1,COc1ccc(Nc2cc3c(nc2-c2ccccc2)nc(C(=O)NCCN(C)C)n3C)cn1,"inconclusive: 50.1 µM [inhibitor, partial curve, poor fit]"
2,Cc1oc(C(O)c2ccccc2F)nc1C(=O)Nc1ccc(C(=O)Nc2ccccc2)cc1 (stereo unspecified),"inconclusive: 44.7 µM [inhibitor, partial curve, poor fit]"
3,Cn1ncc2c(C(=O)NCCc3c[nH]c4ccccc34)cc(-c3ccc(C(F)(F)F)cc3)nc21,active: 39.8 µM
4,O=C(NCc1cccc(Cl)c1)[C@@H]1CCCN1c1nccc(Nc2ccccc2Cl)n1,"inconclusive: 28.2 µM [inhibitor, full curve]"
5,O=c1n(-c2ccncc2)nc2n1CCN(Cc1cccc3ccccc13)C2,"inconclusive: 56.2 µM [inhibitor, partial curve, poor fit]"
6,CCc1nncn1C1CCN(S(=O)(=O)c2ccc(C)c(C)c2)CC1,"inconclusive: 70.8 µM [inhibitor, single point]"
7,CCCCCNC(=O)c1ccccc1-c1ccc(OC)nn1,inactive
8,COc1ccc(-c2nnc([C@H]3CCN(C(=O)c4ccc(OC)c(OC)c4)C3)o2)cc1,"inconclusive: 89.1 µM [inhibitor, partial curve, poor fit]"
9,COc1cccc(NC(=O)[C@@H]2C[C@@H](c3cccc(C(F)(F)F)c3)N(Cc3cnn(C)c3)C2)c1,"inconclusive: 70.8 µM [inhibitor, partial curve, poor fit]"
10,O=C(C1CCCC1)N1CC2(CCCN(CC3CC3)C2)Cc2ccccc21 (stereo unspecified),inactive
11,O=C(NCc1cccs1)c1ccc2oc(-c3ccccn3)nc2c1,"inconclusive: 31.6 µM [inhibitor, full curve]"
12,CC1(O)CCCN(Cc2cc3cc4c(cc3nc2-c2ccc(Cl)cc2)OCO4)C1 (stereo unspecified),"inconclusive: 39.8 µM [inhibitor, full curve, poor fit]"
13,CN(C)C(=O)Cc1ccccc1-n1ccnc1-c1cc2n(n1)CCCNC2,inactive
14,Cc1nnc2ccc(N3CCC(NC(=O)c4cccc(C(F)(F)F)c4)CC3)nn12,"inconclusive: 44.7 µM [inhibitor, partial curve, poor fit]"
15,Cc1cn2nc(C(=O)NCc3ccc(F)cc3)cc2c(N2CCSCC2)n1,"inconclusive: 50.1 µM [inhibitor, partial curve, poor fit]"
16,CCc1cc(=O)n(CC(=O)Nc2ccc(OC)c(OC)c2)c(-c2ccccc2)n1,"inconclusive: 22.4 µM [inhibitor, full curve, poor fit]"
17,O=C(NC1CCN(C(=O)c2ccc(-c3cncnc3)cc2)CC1)c1ccc(Cl)nc1,inactive
18,COCCN1C(=O)c2cccn2CC1CNC(=O)Nc1ccc(OC)cc1 (stereo unspecified),inactive
19,COc1cc(CN2CCN(c3ncc(F)cn3)CC2)cc(Cl)c1OC,"inconclusive: 14.1 µM [inhibitor, full curve]"
20,CC1=C[C@@H](CN(C)CCO)[C@H](C(C)C)C[C@H]1Cc1nnc(C)o1,inactive
21,COc1ccc(C(=O)N2CCOCC3(CN(Cc4ccccc4)C3)C2)c(OC)n1,active: 31.6 µM
22,Cc1ccc(-c2cccc(CN3CCCC3C(=O)NCc3cccc(Cl)c3)c2)cc1Cl (stereo unspecified),active: 35.5 µM
